Some of the results follow.
Assays:
Assay in all cases: glycan array binding signal (z-score within array); higher = stronger binding
Conditions in all cases: glycan notation: IUPAC condensed, linker removed
Gal(b1-3)Gal = biological target: Gal(b1-3)Gal
Procedure, shortened: (§1)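 The binding signal is a Z-score computed within each array. Data were drawn from 3228 arrays in the Consortium for Functional Glycomics database, restricted to those with a known protein sequence. Scores were averaged over arrays of the same protein sequence at different concentrations or buffers, and over linkers, and negative values can be taken as non-binding.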

Gal(b1-3)Gal(b1-4)GlcNAc = biological target: Gal(b1-3)Gal(b1-4)GlcNAc
Procedure, shortened: as §1

Gal(b1-3)GalNAc = biological target: Gal(b1-3)GalNAc
Procedure, shortened: as §1

[1] = biological target: Gal(b1-3)GalNAc(a1-3)[Fuc(a1-2)]Gal(b1-4)Glc
Procedure, shortened: as §1

[2] = biological target: Gal(b1-3)GalNAc(a1-3)[Fuc(a1-2)]Gal(b1-4)GlcNAc
Procedure, shortened: as §1

Gal(b1-3)GalNAc(b1-3)Gal = biological target: Gal(b1-3)GalNAc(b1-3)Gal
Procedure, shortened: as §1

[3] = biological target: Gal(b1-3)GalNAc(b1-3)Gal(a1-4)Gal(b1-4)Glc
Procedure, shortened: as §1

[4] = biological target: Gal(b1-3)GalNAc(b1-4)Gal(b1-4)Glc
Procedure, shortened: as §1

[5] = biological target: Gal(b1-3)GalNAc(b1-4)[Neu5Ac(a2-3)]Gal(b1-4)Glc
Procedure, shortened: as §1

Gal(b1-3)GlcNAc = biological target: Gal(b1-3)GlcNAc
Procedure, shortened: as §1

[6] = biological target: Gal(b1-3)GlcNAc(a1-3)Gal(b1-4)GlcNAc
Procedure, shortened: as §1

[7] = biological target: Gal(b1-3)GlcNAc(a1-6)Gal(b1-4)GlcNAc
Procedure, shortened: as §1

Gal(b1-3)GlcNAc(b1-2)Man = biological target: Gal(b1-3)GlcNAc(b1-2)Man
Procedure, shortened: as §1

[8] = biological target: Gal(b1-3)GlcNAc(b1-2)Man(a1-3)[Gal(b1-3)GlcNAc(b1-2)Man(a1-6)]Man(b1-4)GlcNAc(b1-4)GlcNAc
Procedure, shortened: as §1

[9] = biological target: Gal(b1-3)GlcNAc(b1-2)Man(a1-3)[Gal(b1-3)GlcNAc(b1-2)Man(a1-6)]Man(b1-4)GlcNAc(b1-4)[Fuc(a1-6)]GlcNAc
Procedure, shortened: as §1

[10] = biological target: Gal(b1-3)GlcNAc(b1-2)Man(a1-3)[GlcNAc(b1-4)][Gal(b1-3)GlcNAc(b1-2)Man(a1-6)]Man(b1-4)GlcNAc(b1-4)GlcNAc
Procedure, shortened: as §1

[11] = biological target: Gal(b1-3)GlcNAc(b1-2)[Gal(b1-3)GlcNAc(b1-6)]Man(a1-6)[Gal(b1-3)GlcNAc(b1-2)Man(a1-3)]Man(b1-4)GlcNAc(b1-4)GlcNAc
Procedure, shortened: as §1

[12] = biological target: Gal(b1-3)GlcNAc(b1-3)Gal(b1-3)GlcNAc
Procedure, shortened: as §1

[13] = biological target: Gal(b1-3)GlcNAc(b1-3)Gal(b1-4)Glc
Procedure, shortened: as §1

[14] = biological target: Gal(b1-3)GlcNAc(b1-3)Gal(b1-4)GlcNAc
Procedure, shortened: as §1

[15] = biological target: Gal(b1-3)GlcNAc(b1-3)Gal(b1-4)GlcNAc(b1-2)Man(a1-3)[Gal(b1-3)GlcNAc(b1-3)Gal(b1-4)GlcNAc(b1-2)Man(a1-6)]Man(b1-4)GlcNAc(b1-4)GlcNAc
Procedure, shortened: as §1

[16] = biological target: Gal(b1-3)GlcNAc(b1-3)Gal(b1-4)GlcNAc(b1-2)[Gal(b1-3)GlcNAc(b1-3)Gal(b1-4)GlcNAc(b1-6)]Man(a1-6)[Gal(b1-3)GlcNAc(b1-3)Gal(b1-4)GlcNAc(b1-2)Man(a1-3)]Man(b1-4)GlcNAc(b1-4)[Fuc(a1-6)]GlcNAc
Procedure, shortened: as §1

[17] = biological target: Gal(b1-3)GlcNAc(b1-3)Gal(b1-4)GlcNAc(b1-3)Gal(b1-4)GlcNAc(b1-2)[Gal(b1-3)GlcNAc(b1-3)Gal(b1-4)GlcNAc(b1-3)Gal(b1-4)GlcNAc(b1-6)]Man(a1-6)[Gal(b1-3)GlcNAc(b1-3)Gal(b1-4)GlcNAc(b1-3)Gal(b1-4)GlcNAc(b1-2)Man(a1-3)]Man(b1-4)GlcNAc(b1-4)[Fuc(a1-6)]GlcNAc
Procedure, shortened: as §1

[18] = biological target: Gal(b1-3)GlcNAc(b1-3)Gal(b1-4)GlcNAc(b1-6)[Gal(b1-3)GlcNAc(b1-3)]Gal(b1-4)Glc
Procedure, shortened: as §1

[19] = biological target: Gal(b1-3)GlcNAc(b1-3)Gal(b1-4)[Fuc(a1-3)]GlcNAc
Procedure, shortened: as §1

[20] = biological target: Gal(b1-3)GlcNAc(b1-3)Gal(b1-4)[Fuc(a1-3)]GlcNAc(b1-6)[Gal(b1-3)GlcNAc(b1-3)]Gal(b1-4)Glc
Procedure, shortened: as §1

[21] = biological target: Gal(b1-3)GlcNAc(b1-3)GalNAc
Procedure, shortened: as §1

[22] = biological target: Gal(b1-3)GlcNAc(b1-6)Gal(b1-4)GlcNAc
Procedure, shortened: as §1

[23] = biological target: Gal(b1-3)GlcNAc(b1-6)GalNAc
Procedure, shortened: as §1

[24] = biological target: Gal(b1-3)GlcNAc(b1-6)[Gal(b1-3)]GalNAc
Procedure, shortened: as §1

Gal(b1-3)GlcNAc6S = biological target: Gal(b1-3)GlcNAc6S
Procedure, shortened: as §1

[25] = biological target: Gal(b1-3)[Fuc(a1-4)]GlcNAc
Procedure, shortened: as §1

[26] = biological target: Gal(b1-3)[Fuc(a1-4)]GlcNAc(b1-2)Man
Procedure, shortened: as §1

[27] = biological target: Gal(b1-3)[Fuc(a1-4)]GlcNAc(b1-2)Man(a1-3)[Gal(b1-3)[Fuc(a1-4)]GlcNAc(b1-2)Man(a1-6)]Man(b1-4)GlcNAc(b1-4)[Fuc(a1-6)]GlcNAc
Procedure, shortened: as §1

[28] = biological target: Gal(b1-3)[Fuc(a1-4)]GlcNAc(b1-3)Gal(b1-3)[Fuc(a1-4)]GlcNAc
Procedure, shortened: as §1

[29] = biological target: Gal(b1-3)[Fuc(a1-4)]GlcNAc(b1-3)Gal(b1-4)[Fuc(a1-3)]GlcNAc
Procedure, shortened: as §1

[30] = biological target: Gal(b1-3)[Fuc(a1-4)]GlcNAc(b1-6)GalNAc
Procedure, shortened: as §1

B1: FliD (Clostridium difficile) (protein)
chain: MSSISPVRVTGLSGNFDMEGIIEASMIRDKEKVNKAKQDQQIVKWKQEIYRDIIKESKNLYDKYLNGDSPNSITNKKAYSATRITSSDESIIVAKGSAGAEKINYQFAVSQMAEPAKVTIKLNSSDPIVQQFPPNASGASSLNIGGVNIPISEQDTTSTIVSKINSLCADNDIRASYSEMTGELIISRKQTGSSSDIDLKVIGNDSLAGQIASDNGITFTTDASGTKSAVVYGKNLEADVTDDQGRVTHISKEQNSFKIDNIDYNVNSKGSAKLVSVTDTEEATKNMKAFVDDYNALMDKVYGLVTTKKSKDYPPLTDEQKDDMTTEEIEKWEKKAKEGILRNDDELRAFVEDIQSMFFGDADTIIALRKLGISEHENYNKKGQISFNADTFSKALIDDSDKVYKALAGYSSNYDDKGMFEKLKKIVFEYSGSSASKLTKKAGMENSSSASQNVYSKQIAEQERNISRLVEKMNDKEKRLYAKYSALESLLNKYSSQMNYFSQAQGN
glycan array binding signal (z-score) (Gal(b1-3)Gal): -0.262
glycan array binding signal (z-score) (Gal(b1-3)Gal(b1-4)GlcNAc): -0.236
glycan array binding signal (z-score) (Gal(b1-3)GalNAc): -0.087
glycan array binding signal (z-score) [1]: 0.117
glycan array binding signal (z-score) [2]: -0.18
glycan array binding signal (z-score) (Gal(b1-3)GalNAc(b1-3)Gal): -0.2
glycan array binding signal (z-score) [3]: -0.127
glycan array binding signal (z-score) [4]: -0.164
glycan array binding signal (z-score) [5]: -0.222
glycan array binding signal (z-score) (Gal(b1-3)GlcNAc): -0.197
glycan array binding signal (z-score) [6]: -0.293
glycan array binding signal (z-score) [7]: -0.181
glycan array binding signal (z-score) (Gal(b1-3)GlcNAc(b1-2)Man): 0.052
glycan array binding signal (z-score) [8]: -0.026
glycan array binding signal (z-score) [9]: -0.117
glycan array binding signal (z-score) [10]: -0.034
glycan array binding signal (z-score) [11]: -0.175
glycan array binding signal (z-score) [12]: -0.141
glycan array binding signal (z-score) [13]: -0.245
glycan array binding signal (z-score) [14]: -0.24
glycan array binding signal (z-score) [15]: -0.106
glycan array binding signal (z-score) [16]: 0.01
glycan array binding signal (z-score) [17]: 0.088
glycan array binding signal (z-score) [18]: -0.185
glycan array binding signal (z-score) [19]: -0.209
glycan array binding signal (z-score) [20]: -0.232
glycan array binding signal (z-score) [21]: -0.17
glycan array binding signal (z-score) [22]: 0.007
glycan array binding signal (z-score) [23]: -0.222
glycan array binding signal (z-score) [24]: -0.126
glycan array binding signal (z-score) (Gal(b1-3)GlcNAc6S): -0.148
glycan array binding signal (z-score) [25]: -0.011
glycan array binding signal (z-score) [26]: -0.109
glycan array binding signal (z-score) [27]: 0.269
glycan array binding signal (z-score) [28]: -0.253
glycan array binding signal (z-score) [29]: -0.226
glycan array binding signal (z-score) [30]: -0.08

Reference: the supplement of paper PMC8728848
